In all, about 310,000 compounds went through this assay and about 2,200 (0.71%) showed an effect of 50% or more. The effect is printed as a negative number. Some of the results follow.

The target in the assay is human ether-à-go-go-related gene (hERG) potassium channel (human, UniProt Q12809). Nature of the assay: primary screen, population patch clamp on CHO cells stably expressing hERG.
Chain of human ether-à-go-go-related gene (hERG) potassium channel (Q12809 whole entry, looked up): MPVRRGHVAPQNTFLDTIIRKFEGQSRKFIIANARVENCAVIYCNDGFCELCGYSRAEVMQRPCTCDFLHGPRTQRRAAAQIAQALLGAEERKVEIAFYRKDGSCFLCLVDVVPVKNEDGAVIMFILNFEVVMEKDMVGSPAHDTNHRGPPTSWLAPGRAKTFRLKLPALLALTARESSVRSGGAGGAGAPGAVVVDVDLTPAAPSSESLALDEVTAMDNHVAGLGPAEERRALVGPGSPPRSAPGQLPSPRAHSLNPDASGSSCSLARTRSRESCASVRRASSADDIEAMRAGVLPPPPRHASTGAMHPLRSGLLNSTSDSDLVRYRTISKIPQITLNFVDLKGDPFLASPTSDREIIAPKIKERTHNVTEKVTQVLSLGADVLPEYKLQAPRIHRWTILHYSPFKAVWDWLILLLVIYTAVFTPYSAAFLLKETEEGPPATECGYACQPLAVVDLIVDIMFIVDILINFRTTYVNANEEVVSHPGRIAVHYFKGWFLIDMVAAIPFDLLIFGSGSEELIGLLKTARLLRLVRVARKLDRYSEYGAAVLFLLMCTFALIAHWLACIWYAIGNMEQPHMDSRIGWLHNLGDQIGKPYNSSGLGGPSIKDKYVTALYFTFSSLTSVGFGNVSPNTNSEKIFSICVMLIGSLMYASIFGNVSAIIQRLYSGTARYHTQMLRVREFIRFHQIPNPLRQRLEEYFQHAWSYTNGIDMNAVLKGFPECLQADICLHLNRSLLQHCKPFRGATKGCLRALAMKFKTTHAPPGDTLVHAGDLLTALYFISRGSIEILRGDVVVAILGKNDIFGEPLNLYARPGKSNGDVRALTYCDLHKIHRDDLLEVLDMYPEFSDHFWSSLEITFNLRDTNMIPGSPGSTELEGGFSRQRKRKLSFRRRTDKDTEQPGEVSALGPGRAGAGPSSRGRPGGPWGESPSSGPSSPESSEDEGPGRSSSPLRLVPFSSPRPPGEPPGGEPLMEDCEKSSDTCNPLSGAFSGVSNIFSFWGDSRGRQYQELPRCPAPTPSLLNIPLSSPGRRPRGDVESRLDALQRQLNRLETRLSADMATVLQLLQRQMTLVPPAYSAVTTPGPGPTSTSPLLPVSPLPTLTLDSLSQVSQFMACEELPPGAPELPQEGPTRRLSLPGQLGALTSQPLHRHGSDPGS
In the case of `COC(=O)c1sc2nc(SCc3ccccc3C)n(N)c(=O)c2c1C`, the “hERG current change (%, negative = inhibition) at 1uM” value is 14.9%.
Take `O=S(=O)(c1cccc(-c2nnc(SC(F)F)n2-c2ccccc2)c1)N1CCCCC1`: the “hERG current change (%, negative = inhibition) at 1uM” value was -1.08%.
As for `O=C(O)c1cnc2[nH]c3ccccc3n2c1=O`, the “hERG current change (%, negative = inhibition) at 1uM” value was -5.36%.
As to `O=C(NC1CC1)c1cc2c(F)cccc2s1`, the “hERG current change (%, negative = inhibition) at 1uM” value is -13.7%.
As to `CCOC(=O)c1ccc(NC(=O)c2ccccc2[N+](=O)[O-])cc1`, the “hERG current change (%, negative = inhibition) at 1uM” value was 6.64%.
On to `Fc1ccc(CN2CCN(C(c3ccccc3)c3ccccc3)CC2)cc1.O=C(O)C(=O)O`, for which the “hERG current change (%, negative = inhibition) at 1uM” value was found to be 14.3%.
As for `CC(C)NC(=O)N1c2ccccc2Sc2ccccc21`, the “hERG current change (%, negative = inhibition) at 1uM” value is 12.7%.
The value for `CCCN1CCC(NC(=O)CCc2nnc(Cc3cc(OC)ccc3OC)o2)CC1` was 11.5%; that for `CN1CCc2c(sc(N)c2C(=O)O)C1` was 15.8%; that for `CC(C)(C)NC(=O)C(c1ccncc1)N(Cc1ccc(F)cc1)C(=O)c1ccc(-c2ccccc2)[nH]1` (stereo not drawn) was 14.7%.
The value for `O=C(NCN1CCN(c2ccccc2F)CC1)c1cccnc1` was 1.69%; that for `CC(C)OC(=O)CSc1nnc(CNc2nc(-c3ccccc3)cs2)n1C` was -6.82%.
As to `Cc1ccc(/C=C2\C(=N)N3N=C(CC(=O)N4CCOCC4)SC3=NC2=O)o1`, the “hERG current change (%, negative = inhibition) at 1uM” value worked out at 14.8%.
For `Cc1sc2nc3c4ccccc4c(NCc4ccco4)nn3c(=O)c2c1C`, the “hERG current change (%, negative = inhibition) at 1uM” value was -13.8%.
Take `OCCC1CN(Cc2cnc(-c3ccccc3)s2)CCN1C1CCCCC1` (stereo not drawn): the “hERG current change (%, negative = inhibition) at 1uM” value is given as -4.58%.
The value for `O=C(NNC1=Nc2cccc3cccc1c23)c1ccccc1Br` was 9.23%; that for `O=c1c2ccccc2[nH]c(=S)n1C1CCCCC1` was 19.6%; that for `CC12CCC(=O)N1C(C(=O)Nc1nc(-c3ccc(F)c(F)c3)cs1)CS2` (stereo not drawn) was 14.7%.
Then `N/C(Cc1cccs1)=N\OC(=O)COc1ccc(Cl)cc1Cl`, with -3.39%; and `O=C(Cn1nc(Cl)nc1Cl)c1ccccc1`, with 8.44%.
As for `Cc1nc2sc3c(c2c(=O)n1NC(=O)CCBr)CCCC3`, the “hERG current change (%, negative = inhibition) at 1uM” value is on record as 5.89%.
In the case of `O=S(=O)(NC1=NCCC1)c1cccs1`, the “hERG current change (%, negative = inhibition) at 1uM” value came to 15.4%.
For the compound `CCCOc1ccc(C(=O)CCN2CCCCC2)cc1.Cl`, the “hERG current change (%, negative = inhibition) at 1uM” value is reported as -2.88%.
The value for `CCOC(=O)c1cc(C)sc1/N=C/C1C(=O)CC(C)(C)CC1=O` was 5.33%.
Then `CCOC(=O)N1CCC(Nc2c(NCCCN(C)Cc3ccccc3)c(=O)c2=O)CC1`, with 14.9%; and `COc1cccc(NC(=O)CN(C)CC(=O)Nc2ccc(Cl)cc2[N+](=O)[O-])c1`, with 8.48%; and `Brc1cccc(Cn2c(-c3cncs3)nc3ccccc32)c1`, with 3.49%.
Consider `CCOC(=O)c1ccc(NC(=O)c2cc(S(=O)(=O)N3CCOCC3)ccc2O)cc1`, for which the “hERG current change (%, negative = inhibition) at 1uM” value is -1.61%.
The value for `CCOC(=O)c1cnc2c(CC)cccc2c1NCCN1CCOCC1` was -14.1%.
Then `Cc1nn(-c2cc(N3CCCCC3)ccc2[N+](=O)[O-])c(=O)c2ccccc12`, with -7.72%.
Take `CSc1ccccc1OCc1cc(C(=O)NCCN2CCCC(O)C2)no1` (stereo not drawn): the “hERG current change (%, negative = inhibition) at 1uM” value was -12.6%.
In the case of `Cn1cnnc1SCC(=O)NCc1ccccc1`, the “hERG current change (%, negative = inhibition) at 1uM” value is 13%.
Consider `C=C(CC)C(=O)c1ccc(OCC(=O)O)c(Cl)c1Cl`, for which the “hERG current change (%, negative = inhibition) at 1uM” value worked out at 10.9%.
For the compound `CNC(=O)Cn1nc(-c2ccc(C)c(S(=O)(=O)N(C)C)c2)c2ccccc2c1=O`, the “hERG current change (%, negative = inhibition) at 1uM” value is 3.97%.
`Cc1nc(-c2cn[nH]c2-c2ccc(O)cc2O)cs1`: the “hERG current change (%, negative = inhibition) at 1uM” value came to 7.1%.
The value for `Cc1ccc(OCc2n[nH]c(=S)n2-c2ccc(Br)cc2)cc1` was 17.9%.
For the compound `COc1ccc(/C=C(/NC(=O)c2ccccc2)C(=O)NC(Cc2c[nH]c3ccccc23)C(=O)O)cc1` (stereo not drawn), the “hERG current change (%, negative = inhibition) at 1uM” value is 11.7%.
Take `Cc1cc(C)c2c(-c3ccc(F)cc3)c(C#N)c(=O)n(C)c2n1`: the “hERG current change (%, negative = inhibition) at 1uM” value came to 16.2%.
For `CCCC(C)C(=O)Nc1ccc(F)c(Cl)c1` (stereo not drawn), the “hERG current change (%, negative = inhibition) at 1uM” value is listed as -4.1%.
Take `COc1ccnc(NCc2cccc(C(F)(F)F)c2)c1C#N`: the “hERG current change (%, negative = inhibition) at 1uM” value is reported as 12.1%.
Regarding `COc1cc(-c2cc(C(=O)Nc3ccc(O)cc3)c3ccccc3n2)cc(OC)c1OC`, the “hERG current change (%, negative = inhibition) at 1uM” value came out at 1.69%.
For the compound `COC(=O)C1=C(C(=O)OC)[C@@H]2N(C)c3ccccc3[C@@]23C[C@@H](C(=O)OC)N=C3N1`, the “hERG current change (%, negative = inhibition) at 1uM” value is on record as 3.74%.
As for `CS(=O)(=O)N1CCCC(C(=O)Nc2ccc(Br)cc2F)C1` (stereo not drawn), the “hERG current change (%, negative = inhibition) at 1uM” value turned out to be 9.43%.
As to `N#Cc1cccc(NC(=O)COC(=O)Cn2nc(-c3ccccc3)oc2=O)c1`, the “hERG current change (%, negative = inhibition) at 1uM” value was found to be 11.6%.
For `COc1cc(NC(=O)CSc2nnc(Cn3nnc4ccccc43)n2C)cc(OC)c1`, the “hERG current change (%, negative = inhibition) at 1uM” value is 8.39%.
